# The campaign covered roughly 280,000 compounds. About 100 (0.036%) were called active. Inconclusive results, whose numbers are uncertain, are shown with a selection of clear calls. Calls follow the shape of the dose curve; as a rule, active = well fitted inhibition curve with a large enough effect in the signal ratio, with a control signal flat (not every such curve was filed as active); inconclusive = small, poorly fitted or top-dose-only effect, or effect the other way, or a change in a side signal; inactive = no such curve, though single readings can be large or run the other way; the % refers to the signal ratio. Potencies beside an inconclusive call are fits to weak or partial responses and may not hold up. “Side channel” marks fits to a control or component signal instead of the main read-out.
# Target: Muscleblind-like protein 1 (Homo sapiens) (UniProt Q9NR56)
# Assay: qHTS Assay for Inhibitors of MBNL1-poly(CUG) RNA binding
# Details: TR-FRET MBNL1-His/biotin-(CUG)12 binding, 665/545 ratio; series mostly up to 57.5 µM
# Excerpt: NIH Chemical Genomics Center [NCGC] NIH Molecular Libraries Probe Production Centers Network [MLPCN] MLPCN Grant: R03 MH087421-01 Assay Submitter (PI): Charles Thornton NCGC Assay Overview: Expanded CTG repeats in the 3' untranslated region of the DM protein kinase (DMPK) gene causes type I myotonic dystrophy (DM1). DM1 is a multi-systemic disease with a prevalence of 1/7000. Clinical features include myotonia, progressive muscle weakness and wasting, cardiac arrhythmia, insulin resistance, hypersomnolence, cataracts, and other symptoms. The pathogenic effect of expanded CTG repeats stems from deleterious effects of the mutant transcript. CUGexp mRNA accumulates in nuclear foci and sequesters proteins of the muscleblind family, of which MBNL1 is the most common family member in skeletal muscles. The binding interaction between MBNL1 and CUGexp tracts leads to deregulation of alternative splicing and is therefore a key molecular step in the pathogenesis of DM1. To target this binding interaction, we optimized a protein-RNA binding assay in 1536-well format for identification of small molecule inhibitors of biotinylated (CUG)12 and his-tagged MBNL1 binding. Protein-RNA complex of MBNL1-His and Biotin-(CUG)12 captures the detection reagents terbium-labeled anti-His antibody and streptavidin conjugated XL665. This brings the terbium label within close proximity to XL665 to allow time-resolved fluorescence resonance energy transfer (TR-FRET). Inhibitors of MBNL1-(CUG)12 binding will disrupt TR-FRET.
# NCGC Assay Protocol Summary: This is a TR-FRET binding assay with MBNL1-His and Biotin-(CUG)12 RNA. The assay uses a ratiometric measurement. In the presence of MBNL1-(CUG)12 complex, the excitation energy is transferred to the XL665 acceptor label, causing emission at 665nm, while the 545nm donor signal […]. Data were normalized to the controls for basal activity (buffer only) and 100% activity (with MBNL1-(CUG)12). […] The final titration was 92 nM to 58 uM. (3) Add 1 ul of terbium labeled anti-His antibody (0.055 ng/ul final concentration) (4) Add 1 ul of streptavidin-XL665 (5 nM final concentration) (5) Incubate 60 min at room temperature (6) Detect the assay plate in a EnVision plate reader (PerkinElmer) with Ex=340 nm, Em1=665 nm and Em2=545 nm. Keywords: mytonic dystrophy type I, DM1, muscleblind like 1, MBNL1, CUG expansion, protein-RNA binding inhibitor, high throughput screening, MLSMR, MLSCN, NIH Roadmap, qHTS and NCGC
# Potency is read from the fitted curve at half-maximal effect; tags tell the direction and shape of the fitted curve or compound fluorescence and quenching.
# Sequence of UniProt Q9NR56 (Q9NR56 whole entry, looked up): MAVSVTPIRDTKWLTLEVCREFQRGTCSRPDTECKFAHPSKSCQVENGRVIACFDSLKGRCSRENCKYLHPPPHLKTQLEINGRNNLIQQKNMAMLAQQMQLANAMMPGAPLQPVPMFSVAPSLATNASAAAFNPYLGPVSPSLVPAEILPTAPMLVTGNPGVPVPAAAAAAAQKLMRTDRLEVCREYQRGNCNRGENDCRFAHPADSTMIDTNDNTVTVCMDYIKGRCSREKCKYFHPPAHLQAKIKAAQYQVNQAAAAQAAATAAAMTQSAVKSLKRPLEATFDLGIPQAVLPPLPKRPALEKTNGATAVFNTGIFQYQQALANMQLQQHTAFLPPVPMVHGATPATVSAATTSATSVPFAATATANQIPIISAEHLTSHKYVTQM
row,SMILES,Potency
1,CCOc1cc(/C=C2\NC(=S)N(c3c(C)n(C)n(-c4ccccc4)c3=O)C2=O)ccc1O,"inconclusive: 2.24 µM [quencher, side channel, full curve, poor fit]"
2,Cc1ccc(N2C(=O)C(Cl)=C(N3CCCCCC3)C2=O)cc1,"inconclusive: 20 µM [quencher, side channel, partial curve]"
3,CC1CCCCN1C(=O)COC(=O)/C=C/c1ccc2ccccc2n1 (centres undefined),"inconclusive: 28.2 µM [quencher, side channel, single point]"
4,Oc1c(Br)cc(Br)cc1C=Nc1ccc2c(c1)OCCO2,inactive
5,CN(C)c1cc[n+](CC(=O)Nc2ccc(Cl)c([N+](=O)[O-])c2)cc1,"inconclusive: 25.1 µM [quencher, side channel, partial curve, poor fit]"
6,CCOC(=O)c1sc(NC(=O)c2cncc(Br)c2)nc1C,"inconclusive: 3.16 µM [quencher, side channel, full curve]"
7,O=C(NCCc1ccccc1)/C(=C\c1cccc([N+](=O)[O-])c1)NC(=O)c1ccco1,"inconclusive: 12.6 µM [quencher, side channel, partial curve]"
8,Cc1nn2c(-c3ccccn3)ccnc2c1Cl,"inconclusive: 15.8 µM [quencher, side channel, partial curve]"
9,NC(=O)Cc1ccc(C(=O)c2ccccc2)s1,"inconclusive: 10 µM [quencher, side channel, partial curve]"
10,C/C(=N\NC(=O)c1cc(C)[nH]n1)c1cccs1,inactive
11,CCN(CC)C(=O)CNc1ccc(C(F)(F)F)cc1[N+](=O)[O-],"inconclusive: 11.2 µM [quencher, side channel, partial curve]"
12,O=C1CC(c2ccsc2)c2cc3c(cc2N1)OCCO3 (centres undefined),"inconclusive: 3.16 µM [quencher, side channel, single point]"
13,CCN(CC)c1ccc(-c2nn3c(-c4cccnc4)nnc3s2)cc1,"inconclusive: 3.98 µM [quencher, side channel, partial curve]"
14,Cc1[nH]c(C(=O)N/N=C/c2ccc(N(C)C)cc2)c(C)c1C(=O)N/N=C/c1ccc(N(C)C)cc1,"inconclusive: 17.8 µM [quencher, side channel, partial curve]"
15,Cc1ccc(CNC(=O)c2cn(C3CCCC3)c(=O)c3c2c2ccccc2n3C)o1,"inconclusive: 28.2 µM [quencher, side channel, partial curve]"
16,CCN(CC)C(=O)C(=O)N/N=C/c1ccc(Br)cc1,"inconclusive: 0.562 µM [quencher, side channel, full curve, poor fit]"
17,Cc1ccc(NC(=O)COc2cccnc2[N+](=O)[O-])cc1S(=O)(=O)N1CCCCC1,"inconclusive: 28.2 µM [quencher, side channel, partial curve, poor fit]"
18,Cc1ccnc(NS(=O)(=O)c2ccc(NC(=O)c3ccc([N+](=O)[O-])s3)cc2)n1,"inconclusive: 14.1 µM [quencher, side channel, partial curve]"
19,CCOC(=O)N1CCC(N2C(=O)c3ccc(C(=O)NCCC(C)C)cc3C2=O)CC1,"inconclusive: 7.94 µM [quencher, side channel, full curve, poor fit]"
20,Cc1cc(C)cc(-c2nnc(SCc3ccc(C(=O)O)cc3)o2)c1,"inconclusive: 12.6 µM [quencher, side channel, partial curve]"

row,SMILES,Potency
1,COc1ccc(C)cc1Nc1n[n+](C)c(-c2c3ccccc3cc3ccccc23)s1,"inconclusive: 3.55 µM [quencher, side channel, full curve]"
2,Cc1ccc2nc(-c3ccccc3NC(=O)CCC(=O)O)c(=O)[nH]c2c1,"inconclusive: 28.2 µM [quencher, side channel, partial curve]"
3,Cc1ccc2cc(CCNC(=O)CC(C)C)c(=O)[nH]c2c1,"inconclusive: 0.891 µM [fluorescent, side channel, partial curve]"
4,NC(=O)c1ccc(-n2c(CCC(=O)O)ccc2-c2cccs2)cc1,"inconclusive: 39.8 µM [quencher, side channel, single point]"
5,O=C(Nc1ccc([N+](=O)[O-])cc1)Nc1cnccn1,"inconclusive: 15.8 µM [quencher, side channel, partial curve]"
6,CCN(CC)C(=O)c1sc2nc(-c3ccccc3)ccc2c1N,"inconclusive: 39.8 µM [quencher, single point]"
7,CCCn1c(C(=O)OC)cc2c1ccn2-c1ccc(F)cc1,inactive
8,OCCCNc1nc(-c2ccc(Br)cc2)nnc1-c1ccc(Cl)cc1,inactive
9,COc1ccc(NC(=O)c2ccc(NCC3CCCO3)c([N+](=O)[O-])c2)cc1 (centres undefined),"inconclusive: 6.31 µM [quencher, partial curve]"
10,O=C(CN1CCN(Cc2ccc(Cl)cc2)C1=O)NCCN1CCCC1,"inconclusive: 1.12 µM [inhibitor, full curve, poor fit]"
11,COC(=O)c1sccc1NC(=O)COc1ccc(Cl)cc1Cl,"inconclusive: 0.316 µM [fluorescent, side channel, partial curve]"
12,Cc1ccnc(NS(=O)(=O)c2ccc(N3C(=O)C4CCCCC4C3=O)cc2)n1 (centres undefined),inactive
13,Cc1[nH]c(=S)sc1Cc1ccc(F)cc1,"inconclusive: 3.55 µM [quencher, side channel, partial curve, poor fit]"
14,Cc1ccc(CNC(=O)c2ccccc2CCc2ccccc2)cc1,"inconclusive: 0.708 µM [quencher, side channel, single point]"
15,O=C(Nc1ccc(S(=O)(=O)Nc2ccccn2)cc1)c1ccccc1,"inconclusive: 12.6 µM [quencher, side channel, partial curve]"
16,COC(=O)c1cccc(COC(=O)c2cc3ccccc3oc2=O)c1,"inconclusive: 22.4 µM [quencher, single point]"
17,COc1ccc(C(CCN(Cc2ccc(OC)c(OC)c2)C(C)=O)C(C)C)cc1 (centres undefined),inactive
18,COc1ccc(-c2csc(NC(=S)NC(=O)/C=C/c3ccco3)n2)cc1OC,"inconclusive: 5.62 µM [inhibitor, full curve]"
19,CC(=O)c1cccc(NC(=O)C2CCCN(S(=O)(=O)c3cccc4nonc34)C2)c1 (centres undefined),"inconclusive: 2.24 µM [quencher, side channel, full curve, poor fit]"
20,O=C1C2C3C=CC(C4CC34)C2C(=O)N1/N=C/c1ccc(-c2ccc(Cl)cc2[N+](=O)[O-])o1 (centres undefined),"inconclusive: 20 µM [quencher, side channel, single point]"

row,SMILES,Potency
1,Cc1ccnc(NS(=O)(=O)c2ccc(NC(=O)c3ccc(Cl)cc3[N+](=O)[O-])cc2)n1,"inconclusive: 31.6 µM [quencher, side channel, single point]"
2,CC1CCN(CCOc2cccc(Br)c2)CC1,"inconclusive: 11.2 µM [fluorescent, side channel, partial curve, poor fit]"
3,CC(C)C(=O)Nc1cccc(NC(=O)c2cccc([N+](=O)[O-])c2)c1,"inconclusive: 15.8 µM [quencher, side channel, partial curve]"
4,Cn1cc(/C=C(\NC(=O)c2ccccc2Cl)C(=O)NCCN2CCOCC2)c2ccccc21,"inconclusive: 12.6 µM [quencher, side channel, partial curve]"
5,COc1ccc(N=Cc2[nH]c3ccccc3c2O)cc1,"inconclusive: 6.31 µM [quencher, side channel, partial curve]"
6,Cc1ccc(Sc2ncccc2[N+](=O)[O-])cc1,"inconclusive: 8.91 µM [quencher, side channel, partial curve]"
7,Cc1cccc(NC(=O)CSc2nnc(CCC(=O)Nc3ccc(C)c(Cl)c3)n2C)c1,"inconclusive: 7.08 µM [quencher, side channel, partial curve]"
8,O=C(Nc1ccc(O)cc1)/C(=C/c1ccco1)NC(=O)c1ccccc1,"inconclusive: 17.8 µM [quencher, side channel, single point]"
9,Cc1ccccc1C(=O)N/N=C/c1ccncc1,inactive
10,O=C(Nc1cccc(Cl)c1)Nn1cnnc1,active: 25.1 µM
11,CC(=O)Nc1ccc(S(=O)(=O)NCC2CCC(C(=O)NCc3ccccc3)CC2)cc1 (centres undefined),inactive
12,O=C(/C=C/c1cnc2ccccc2n1)NC12CC3CC(CC(C3)C1)C2,"inconclusive: 8.91 µM [quencher, side channel, partial curve]"
13,O=[N+]([O-])c1ccc(O)c(CN2CCCCCC2)c1,"inconclusive: 31.6 µM [quencher, side channel, partial curve]"
14,COc1ccc(NCc2ccccc2[N+](=O)[O-])cc1OC,"inconclusive: 5.62 µM [quencher, side channel, full curve, poor fit]"
15,CCCCn1c(SCC(N)=O)nc2c(sc3ccccc32)c1=O,inactive
16,O=C(CSCc1ccc([N+](=O)[O-])cc1)NC1CCCCCC1,"inconclusive: 17.8 µM [quencher, partial curve]"
17,COc1ccc(-c2n[nH]c(C)c2-c2cnn(-c3ccccc3)c2)c(O)c1C,inactive
18,O=C(/C=C/Nc1ccccc1)c1ccccc1,"inconclusive: 8.91 µM [quencher, side channel, full curve, poor fit]"
19,COc1ccc2c3c(cccc13)C(=O)CC2,"inconclusive: 17.8 µM [quencher, side channel, partial curve]"

# — PubChem BioAssay AID2675 (National Center for Advancing Translational Sciences (NCATS), 2010)
